Experimental data from paper PMC11673900 (Journal of Translational Medicine, 2024).

Target: T1, MBP-tagged NONO (human, UniProt Q15233 1-471)
T1 sequence (looked up): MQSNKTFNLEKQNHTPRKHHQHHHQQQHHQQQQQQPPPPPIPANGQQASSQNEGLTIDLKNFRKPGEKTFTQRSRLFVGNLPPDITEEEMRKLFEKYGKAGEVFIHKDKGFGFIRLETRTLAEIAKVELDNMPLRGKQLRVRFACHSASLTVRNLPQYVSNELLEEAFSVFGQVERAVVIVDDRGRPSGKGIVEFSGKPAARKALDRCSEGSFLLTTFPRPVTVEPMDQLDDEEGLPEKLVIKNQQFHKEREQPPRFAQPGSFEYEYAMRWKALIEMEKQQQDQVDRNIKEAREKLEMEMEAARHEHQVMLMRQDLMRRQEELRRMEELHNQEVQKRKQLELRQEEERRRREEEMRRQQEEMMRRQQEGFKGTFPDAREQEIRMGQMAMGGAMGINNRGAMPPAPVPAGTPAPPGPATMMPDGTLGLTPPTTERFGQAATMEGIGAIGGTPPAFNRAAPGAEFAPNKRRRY
Assay: co-IP

B1: GST-tagged PARP1 catalytic (CAT) domain ([…]) (domain or fragment)
chain: not shown
binding result: binds
